Data from the CheMixHub viscosity set.
± gives the uncertainty stated by the source. Not every entry of the source has a single result; some have several. This list holds those alone. The source may hold further records. The records of an entry are repeats (runs, samples, wells, individuals or studies). A tag in brackets gives the origin of a value. A, B and so on number the origins entry by entry. Additions like (4×) count equal records among those shown.

Structure (SMILES): C=Cc1ccccc1
- viscosity (298.15 K, 101.33 kPa): 0.709 ± 0.011 mPa·s, 0.709 ± 0.013 mPa·s [study A] and 0.708 ± 0.005 mPa·s, 0.708 ± 0.009 mPa·s, 0.7082 ± 0.0093 mPa·s, 0.708 ± 0.018 mPa·s, 0.7082 ± 0.018 mPa·s [study B] and 0.709 ± 0.037 mPa·s, 0.708 ± 0.037 mPa·s [study C]
- viscosity (303.15 K, 101.33 kPa): 0.662 ± 0.011 mPa·s, 0.662 ± 0.013 mPa·s [study A] and 0.663 ± 0.005 mPa·s, 0.663 ± 0.009 mPa·s, 0.6627 ± 0.0088 mPa·s, 0.663 ± 0.017 mPa·s, 0.6627 ± 0.017 mPa·s [study B] and 0.662 ± 0.035 mPa·s [study C]
- viscosity (308.15 K, 101.33 kPa): 0.623 ± 0.011 mPa·s, 0.623 ± 0.013 mPa·s [study A] and 0.623 ± 0.004 mPa·s, 0.623 ± 0.008 mPa·s, 0.6231 ± 0.0084 mPa·s, 0.623 ± 0.017 mPa·s, 0.6231 ± 0.017 mPa·s [study B] and 0.623 ± 0.033 mPa·s [study C]

Structure (SMILES): CC(=O)c1ccc(Cl)cc1
- viscosity (308.15 K, 101 kPa): 2.355 ± 0.071 mPa·s [study A] and 2.293 ± 0.02 mPa·s [study B] and 2.293 ± 0.029 mPa·s [study C] and 2.292 ± 0.028 mPa·s [study D]

Structure (SMILES): CC#N
- viscosity (293.15 K, 100 kPa): 0.386 ± 0.039 mPa·s [study A] and 0.36 ± 0.07 mPa·s [study B] and 0.3641 ± 0.037 mPa·s [study C] and 0.3642 ± 0.01 mPa·s [study D]
- viscosity (293.15 K, 101 kPa): 0.35 ± 0.071 mPa·s [study A] and 0.355 ± 0.008 mPa·s [study B] and 0.364 ± 0.011 mPa·s [study C] and 0.366 ± 0.008 mPa·s [study D] and 0.355 ± 0.009 mPa·s [study E] and 0.36 ± 0.18 mPa·s [study F]
- viscosity (298.15 K, 101 kPa): 0.259 ± 0.007 mPa·s, 0.324 ± 0.0049 mPa·s, 0.338 ± 0.004 mPa·s, 0.375 ± 0.01 mPa·s, 0.315 ± 0.004 mPa·s, 0.346 ± 0.011 mPa·s, 0.333 ± 0.067 mPa·s, 0.35 ± 0.18 mPa·s, 0.3462 ± 0.0074 mPa·s, 0.345 ± 0.005 mPa·s [several studies]
- viscosity (303.15 K, 101 kPa): 0.332 ± 0.007 mPa·s, 0.312 ± 0.004 mPa·s, 0.326 ± 0.039 mPa·s, 0.353 ± 0.0075 mPa·s, 0.332 ± 0.003 mPa·s, 0.331 ± 0.011 mPa·s, 0.329 ± 0.005 mPa·s, 0.326 ± 0.033 mPa·s, 0.3307 ± 0.0071 mPa·s [several studies]
- viscosity (313.15 K, 101 kPa): 0.279 ± 0.057 mPa·s [study A] and 0.297 ± 0.03 mPa·s [study B] and 0.31 ± 0.007 mPa·s [study C] and 0.303 ± 0.008 mPa·s [study D] and 0.2965 ± 0.0074 mPa·s [study E] and 0.337 ± 0.009 mPa·s [study F]
- viscosity (318.15 K, 100 kPa): 0.2956 ± 0.03 mPa·s [study A] and 0.277 ± 0.056 mPa·s [study B] and 0.2912 ± 0.01 mPa·s [study C] and 0.286 ± 0.017 mPa·s [study D]
- viscosity (323.15 K, 101 kPa): 0.276 ± 0.005 mPa·s [study A] and 0.291 ± 0.007 mPa·s [study B] and 0.287 ± 0.008 mPa·s [study C] and 0.276 ± 0.01 mPa·s [study D] and 0.279 ± 0.003 mPa·s [study E]

Structure (SMILES): CCCCCCCCO
- viscosity (303.15 K, 101 kPa): 6.493 ± 0.17 mPa·s, 6.513 ± 0.078 mPa·s, 6.344 ± 0.036 mPa·s, 6.446 ± 0.13 mPa·s, 5.969 ± 0.035 mPa·s, 6.602 ± 0.14 mPa·s, 6.125 ± 0.49 mPa·s, 6.207 ± 1.2 mPa·s, 6.247 ± 0.11 mPa·s, 6.201 ± 0.25 mPa·s, 5.969 ± 0.073 mPa·s [several studies]
- viscosity (303.15 K, 101.33 kPa): 6.12 ± 0.25 mPa·s [study A] and 6.102 ± 0.036 mPa·s [study B] and 6.102 ± 0.043 mPa·s [study C] and 6.256 ± 0.13 mPa·s [study D] and 6.1 ± 0.034 mPa·s [study E] and 6.256 ± 0.052 mPa·s [study F] and 6.102 ± 0.065 mPa·s [study G] and 6.207 ± 0.066 mPa·s [study H]
- viscosity (308.15 K, 100 kPa): 5.37 ± 0.97 mPa·s [study A] and 5.36 ± 0.069 mPa·s [study B] and 5.422 ± 0.15 mPa·s [study C] and 5.421 ± 0.17 mPa·s [study D] and 5.388 ± 0.15 mPa·s [study E] and 5.38 ± 0.22 mPa·s [study F]
- viscosity (308.15 K, 101 kPa): 5.256 ± 0.05 mPa·s (2×), 5.257 ± 0.05 mPa·s, 5.363 ± 0.032 mPa·s, 5.009 ± 0.03 mPa·s, 5.274 ± 0.44 mPa·s, 5.422 ± 0.18 mPa·s, 5.403 ± 1.1 mPa·s, 5.522 ± 0.032 mPa·s, 5.01 ± 0.07 mPa·s, 5.213 ± 0.048 mPa·s, 5.422 ± 0.33 mPa·s [several studies]
- viscosity (313.15 K, 101.33 kPa): 4.413 ± 0.028 mPa·s [study A] and 4.413 ± 0.033 mPa·s [study B] and 4.584 ± 0.11 mPa·s [study C] and 4.584 ± 0.04 mPa·s [study D] and 4.413 ± 0.05 mPa·s [study E]
- viscosity (318.15 K, 100 kPa): 3.97 ± 0.71 mPa·s [study A] and 3.904 ± 0.05 mPa·s [study B] and 4.051 ± 0.11 mPa·s [study C] and 4.011 ± 0.11 mPa·s [study D] and 3.91 ± 0.16 mPa·s [study E]
